Data reported in PubChem BioAssay (Tox21).
Where “and” joins values, the source holds several entries; their conditions need not be identical. Equal entries are not always repeated. Inconclusive means that the source gave no clear call. Such entries were picked first, then a sample of the others. A potency beside an inconclusive call is a rough fit, not a confirmed value. Where a structure was tested more than once in an assay, its records may differ in their call. Calls of active or inactive are those of the source. The call rests on the fitted dose curve; in most records, active means well fitted curve in the direction sought with a large enough effect in the repeat runs; inconclusive means weak or mixed curves; inactive means no such curve, though single readings can be large; an effect the other way counts as inactive or inconclusive.
Potency means the concentration at half of the fitted maximal effect; tags describe the fitted curve by direction and shape.

Assay: qHTS RealTime-Glo MT Cell Viability Assay in HepG2 cells - 40 hour (AID 1224870); further: nearly all actives have a fitted effect of over 50% in size
Conditions: RealTime-Glo luminescence; series mostly up to 76.8 µM
Procedure, shortened: (§1)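 HepG2 cells (600/well) mixed with RealTime-Glo MT reagent, settled 5 h at 37 C/5% CO2 before compound addition. Nonlytic NanoLuc luminescence from viable-cell prosubstrate reduction read repeatedly during 40 h treatment at 37 C.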
For `CCCCCCCCCCCCCCCCCCn1cc[n+](C)c1`, the Potency was active: 21.7 µM.
In the case of `CCCCCC[n+]1ccccc1`, the Potency is reported as inconclusive: 54.9 µM [falling, single point].
In the case of `CCCC[n+]1cccc(C)c1`, the Potency is reported as active: 49.6 µM.
In the case of `[Cd+2].[Cl-].[Cl-]`, the Potency is reported as inconclusive: 55.4 µM.
For `CC(O)C(=O)[O][Hg][c]1ccccc1` (stereo not given), the Potency was active: 2.75 µM.

Assay: A CellTox Green Cytotoxicity Assay to monitor cytotoxicity in HEK293 cells - 40 hour (AID 1224871); further: nearly all actives have a fitted effect of over 45% in size
Conditions: CellTox Green fluorescence; series mostly up to 76.8 µM
Procedure, shortened: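 Tox21 screen in HEK293: membrane-impermeant cyanine dye fluoresces on binding dead-cell DNA; compound pinned 5 h post-seeding, plates held at 37 C, signal read repeatedly through 40 h.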
With `CCCN(CC)CC1COC2(CCC(C(C)(C)C)CC2)O1` (stereo not given) the Potency was inconclusive: 43.6 µM [activator, partial curve, poor fit].
With `C=CCN1C[C@H](C)N([C@H](c2ccc(C(=O)N(CC)CC)cc2)c2cccc(OC)c2)C[C@H]1C` the Potency was inconclusive: 26.8 µM [activator, single point].
In the case of `Cc1ccc2cc3c(ccc4ccccc43)c3c2c1CC3`, the Potency is reported as inconclusive: 27.6 µM [activator, partial curve, poor fit].
For `COCCC#N`, the Potency was “inactive”.
For `C=CCC1=C(C)[C@@H](OC(=O)[C@@H]2[C@@H](C=C(C)C)C2(C)C)CC1=O`, the Potency was inconclusive: 54.9 µM [activator, single point].
For `Cc1ccc2ccccc2c1`, the Potency was “inactive”.
In the case of `Brc1cccc(-c2ccccc2)c1`, the Potency is reported as active: 39.2 µM.
With `CCOP(=O)(NC(C)C)Oc1ccc(SC)c(C)c1` (stereo not given) the Potency was inconclusive: 21.9 µM [activator, single point].
With `CCOP(=O)(OCC)Oc1nc(Cl)c(Cl)cc1Cl` the Potency was “inactive”.
With `[Cd+2].[Cl-].[Cl-]` the Potency was active: 24.8 µM and active: 7.76 µM.
With `Cc1ccc(OP(=O)(Oc2ccccc2)Oc2ccccc2)cc1` the Potency was “inactive”.

Assay: qHTS RealTime-Glo MT Cell Viability Assay in HEK293 cells - 16 hour (AID 1224872); further: nearly all actives have a fitted effect of over 50% in size
Conditions: RealTime-Glo luminescence; series mostly up to 76.8 µM
Procedure, shortened: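 Nonlytic real-time viability readout: viable cells convert prosubstrate to NanoLuc substrate, giving luminescence proportional to live cell number. HEK293, 600 cells/well, compound added after 5 h, continuous culture at 37 C.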
For `C=CCN1C[C@H](C)N([C@H](c2ccc(C(=O)N(CC)CC)cc2)c2cccc(OC)c2)C[C@H]1C`, the Potency was inconclusive: 23.9 µM [cytotoxic, partial curve].
In the case of `O=C(O)CC[N+](=O)[O-]`, the Potency is reported as “inactive”.
With `CC(C)[C@@H](Nc1ccc(C(F)(F)F)cc1Cl)C(=O)OC(C#N)c1cccc(Oc2ccccc2)c1` (stereo not given in full) the Potency was inconclusive: 42 µM [cytotoxic, partial curve, poor fit].
For `C=CCC1=C(C)[C@@H](OC(=O)[C@@H]2[C@@H](C=C(C)C)C2(C)C)CC1=O`, the Potency was active: 11 µM.
With `CCCCCCCCCCCCCCn1cc[n+](C)c1` the Potency was inconclusive: 54.9 µM [cytotoxic, single point].
With `C[C@]12C=CC3=C4CCC(=O)C=C4CC[C@H]3[C@@H]1CC[C@@H]2O` the Potency was inconclusive: 61.2 µM [cytotoxic, partial curve, poor fit].
For `CCOP(=O)(NC(C)C)Oc1ccc(SC)c(C)c1` (stereo not given), the Potency was inconclusive: 19.5 µM [cytotoxic, partial curve].
In the case of `CCCCC/C=C\C/C=C\C/C=C\C/C=C\CCCC(=O)NCC(=O)O`, the Potency is reported as “inactive”.
For `[Cd+2].[Cl-].[Cl-]`, the Potency was inconclusive: 98.5 nM [rising, full curve] and inconclusive: 110 nM [rising, full curve].
For `CC(O)C(=O)[O][Hg][c]1ccccc1` (stereo not given), the Potency was active: 1.1 µM.

Assay: qHTS RealTime-Glo MT Cell Viability Assay in HepG2 cells - 8 hour (AID 1224873); further: nearly all actives have a fitted effect of over 55% in size; on viability change, negative = cytotoxic: on the % scale 0 is the no-effect control and ±100 the full control effect
Conditions: RealTime-Glo luminescence; series mostly up to 76.8 µM
Procedure, shortened: as §1
For `CC(C)c1cccc(C(C)C)c1O`, the Potency was inconclusive: 38.9 µM [falling, partial curve].
In the case of `CC(C)[C@@H](Nc1ccc(C(F)(F)F)cc1Cl)C(=O)OC(C#N)c1cccc(Oc2ccccc2)c1` (stereo not given in full), the Potency is reported as inconclusive: 42 µM [falling, partial curve].
With `CCCCCCCCCCCCBr` the Potency was “inactive”.
For `O=C1c2ccccc2C(=O)c2ccccc21`, the viability change, negative = cytotoxic was inactive: 0.64% [at 15.8 µM].
In the case of `CC(O)C(=O)[O][Hg][c]1ccccc1` (stereo not given), the Potency is reported as active: 2.19 µM.

Assay: qHTS RealTime-Glo MT Cell Viability Assay in HEK293 cells - 40 hour (AID 1224874); further: nearly all actives have a fitted effect of over 50% in size; on max response: on the % scale 0 is the no-effect control and ±100 the full control effect
Conditions: RealTime-Glo luminescence; max response: active compounds read low
Procedure, shortened: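 HEK293 + NanoLuc + prosubstrate, 600 cells/well; 5 h, 37 C/5% CO2; compound 23 nL in DMSO by pintool; 37 C; luminescence read at 0, 8, 16, 24, 32 and 40 h time points.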
In the case of `CCCN(CC)CC1COC2(CCC(C(C)(C)C)CC2)O1` (stereo not given), the max response is reported as inactive: -8.74%.
With `C=CCN1C[C@H](C)N([C@H](c2ccc(C(=O)N(CC)CC)cc2)c2cccc(OC)c2)C[C@H]1C` the Potency was active: 19 µM.
For `Cc1ccc2cc3c(ccc4ccccc43)c3c2c1CC3`, the max response was inactive: 6.91%.
For `O=C(O)c1ccc2[nH]cc(CCCCN3CC=C(c4ccccc4)CC3)c2c1`, the max response was inactive: -1.51%.
In the case of `NC1CCC(CC2CCC(N)CC2)CC1` (stereo not given), the Potency is reported as inconclusive: 54 µM [cytotoxic, partial curve, poor fit].
In the case of `CCCCCCCCCCCCCCn1cc[n+](C)c1`, the Potency is reported as inconclusive: 54.9 µM [cytotoxic, single point].
For `CCCCCCCCCCCCCCCCCCn1cc[n+](C)c1`, the Potency was active: 7.72 µM.
With `C[C@]12C=CC3=C4CCC(=O)C=C4CC[C@H]3[C@@H]1CC[C@@H]2O` the Potency was inconclusive: 61.2 µM [cytotoxic, partial curve, poor fit].
For `CCOP(=O)(NC(C)C)Oc1ccc(SC)c(C)c1` (stereo not given), the Potency was active: 13.8 µM.
In the case of `CCCCC/C=C\C/C=C\C/C=C\C/C=C\CCCC(=O)NCC(=O)O`, the max response is reported as inactive: -10.5%.
In the case of `CCCCCC[n+]1ccccc1`, the Potency is reported as active: 27.8 µM [middle of 5 runs] and the max response is reported as inactive: -3.16%.
In the case of `CCC(C)Br` (stereo not given), the Potency is reported as inconclusive: 58.3 µM [rising, single point].
With `[Cd+2].[Cl-].[Cl-]` the Potency was inconclusive: 24.5 µM [cytotoxic, partial curve, poor fit].
